# Experimental data reported in PubChem BioAssay AID2147 (National Center for Advancing Translational Sciences (NCATS), 2009).
# Out of some 230,000 compounds screened, about 3,600 (1.6%) were called active. Inconclusive means that the source gave no clear call. Such entries were picked first, then a sample of the others. The call rests on the fitted dose curve; in most records, active means well fitted inhibition curve with a large enough effect (not every such curve was filed as active); inconclusive means small, poorly fitted or top-dose-only effect, or another doubt; inactive means no such curve, though single readings can be large or run the other way. A potency beside an inconclusive call is a rough fit, not a confirmed value.
# Biological target: Lysine-specific demethylase 4E (Homo sapiens) (UniProt B2RXH2)
# Experiment: qHTS Assay for Inhibitors of Human Jumonji Domain Containing 2E (JMJD2E)
# Conditions: JMJD2E catalytic domain, FDH-coupled NADH fluorescence (FDH is formaldehyde dehydrogenase); series mostly up to 57.1 µM
# Further: nearly all actives have a fitted effect of over 50% in size.
# Potency means the concentration at half of the fitted maximal effect; tags describe the fitted curve by direction and shape.
# Sequence of UniProt B2RXH2 (B2RXH2 whole entry, looked up, the tested form may be a part): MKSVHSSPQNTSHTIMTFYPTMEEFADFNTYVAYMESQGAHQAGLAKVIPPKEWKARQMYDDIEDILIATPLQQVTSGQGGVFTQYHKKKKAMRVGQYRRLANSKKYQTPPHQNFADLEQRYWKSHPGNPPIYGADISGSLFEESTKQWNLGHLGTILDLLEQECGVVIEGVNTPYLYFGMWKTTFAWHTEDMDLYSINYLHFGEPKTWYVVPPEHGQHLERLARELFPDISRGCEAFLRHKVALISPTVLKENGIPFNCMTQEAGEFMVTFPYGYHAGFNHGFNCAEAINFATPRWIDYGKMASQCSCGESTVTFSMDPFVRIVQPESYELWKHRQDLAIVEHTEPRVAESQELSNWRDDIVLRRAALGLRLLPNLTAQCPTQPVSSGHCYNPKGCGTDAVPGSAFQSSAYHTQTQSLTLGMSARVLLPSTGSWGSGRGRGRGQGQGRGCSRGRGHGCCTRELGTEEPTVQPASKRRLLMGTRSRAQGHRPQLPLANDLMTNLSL
row,SMILES,Potency
1,N#Cc1ccc(NC(=O)Nc2ccc(Oc3ccc(NC(=O)Nc4ccc(C#N)cc4)cc3)cc2)cc1,"inconclusive: 35.5 µM [inhibitor, single point]"
2,CCc1ccc(OCC(=O)NCc2ccco2)c(Br)c1,inactive
3,O=C(CSCc1c(Cl)cccc1Cl)Nc1ccccc1C(=O)N1CCOCC1,"inconclusive: 39.8 µM [inhibitor, single point]"
4,CCCCCCn1cnc2c(c1=O)c1nc3ccccc3nc1n2/N=C/c1ccco1,"inconclusive: 20 µM [inhibitor, partial curve]"
5,O=C(/C=C/c1ccccc1)Nc1nnc(-c2ccco2)o1,"inconclusive: 39.8 µM [inhibitor, single point]"
6,N#Cc1cc(-c2ccc(Cl)cc2)cn(Cc2c(Cl)cccc2Cl)c1=O,"inconclusive: 8.91 µM [inhibitor, full curve]"
7,CC(C)CC(=O)NNC(=S)Nc1ccc(S(N)(=O)=O)cc1,inactive
8,O=C1C2C3C=CC(C3=C(c3ccccc3)c3ccccc3)C2C(=O)N1CCO (centres undefined),inactive
9,CC(C)c1cc(=O)oc2c3c4c(cc12)CCCN4CCC3,"inconclusive: 28.2 µM [inhibitor, partial curve]"
10,CCOC(=O)c1c(-c2ccccc2)csc1NC(=O)c1ccc(S(=O)(=O)N2CCOCC2)cc1,inactive
11,COc1cc2cc(C(c3nnnn3C3CCCC3)N3CCc4ccccc43)c(=O)[nH]c2cc1OC (centres undefined),"inconclusive: 28.2 µM [inhibitor, single point]"
12,Cc1ccccc1C(=O)/C(C#N)=N/Nc1c(C)n(C)n(-c2ccccc2)c1=O,"inconclusive: 28.2 µM [inhibitor, single point]"
13,CCOc1ccc(CCNC(=O)C2CCN(c3ccc(N4CCOCC4)nn3)CC2)cc1OCC,"inconclusive: 28.2 µM [inhibitor, partial curve]"
14,O=c1oc(-c2ccccc2)nc2sc3c(c12)CCC3,inactive
15,COc1ccc2nc(N=NC3=C(O)CC(C)(C)CC3=O)sc2c1,"inconclusive: 35.5 µM [inhibitor, single point]"
16,Cc1ccc2[nH]c(C(=O)O)c(-c3ccccc3)c2c1,"inconclusive: 31.6 µM [inhibitor, partial curve]"
17,CCCCC[n+]1ccn(-c2nc3ccccc3nc2[N-]S(=O)(=O)c2ccccc2)c1,"inconclusive: 31.6 µM [inhibitor, partial curve]"
18,Cc1ccc(CNc2ccc3c(c2)ncn3C(C)(C)C)cc1,"inconclusive: 25.1 µM [inhibitor, partial curve]"
19,Cn1c(C(=O)NCCN2CCOCC2)cc2c(=O)n(C)c3ccccc3c21,"inconclusive: 28.2 µM [inhibitor, partial curve]"
20,C=CCn1c(C(c2ccccc2)c2ccccc2)n[nH]c1=S,inactive
21,CC1(C)Cc2c(C#N)c(SCC(=O)c3ccccc3)nc(N3CCOCC3)c2CO1,"inconclusive: 31.6 µM [inhibitor, partial curve]"
22,Cc1ccc(-n2c3nc(=O)n(C)c(=O)c-3cc3ccccc32)cc1,"inconclusive: 7.94 µM [inhibitor, partial curve]"

row,SMILES,Potency
1,COc1cc2c(cc1O)CCN(C(=O)c1ccco1)C2C (centres undefined),"inconclusive: 39.8 µM [inhibitor, single point]"
2,COc1ccc(-c2cc3ccccc3c(=O)o2)cc1,"inconclusive: 31.6 µM [inhibitor, partial curve]"
3,NC(=O)c1sc2nc(-c3ccccc3)c3c(c2c1N)CCCC3,"inconclusive: 28.2 µM [inhibitor, partial curve]"
4,S=C(N=Nc1ccccc1)NNc1ccccc1,inactive
5,O=C(CCl)NC(=O)NC12CC3CC(CC(C3)C1)C2,inactive
6,O=c1[nH]c(Cc2ccccn2)nc2scc(-c3ccccc3Cl)c12,"inconclusive: 35.5 µM [inhibitor, single point]"
7,Cc1ccc(CSc2ncnc3c2cnn3-c2ccccc2)cc1,inactive
8,Cc1nnn(C23CC4CC(CC(C(=O)NN)(C4)C2)C3)n1,inactive
9,COc1cc(/C=C2\CCOC2=O)cc(OC)c1OC,"inconclusive: 39.8 µM [inhibitor, single point]"
10,COCCN=C1NN=C(c2ccc(NC(C)=O)cc2)CS1,"inconclusive: 31.6 µM [inhibitor, single point]"
11,COc1ccc(C(c2sc3nc(C)nn3c2O)N2CCc3ccccc3C2)cc1 (centres undefined),"inconclusive: 35.5 µM [inhibitor, single point]"
12,COc1ccc(-c2nc(CS(=O)CC(=O)N3CCCC3)c(C)o2)cc1 (centres undefined),"inconclusive: 28.2 µM [inhibitor, partial curve]"
13,C#CCOCCOCCOCCNc1nc(N2CCN(C(=O)[C@H](CCCCN)n3cc([C@@H](N)CC(C)C)nn3)CC2)nc(N2CCN(C(=O)[C@H](CCCCN)n3cc([C@@H](N)CC(C)C)nn3)CC2)n1,inactive
14,CCCCC12CN3CCN(CC(C3)/C1=N\NC(=O)c1ccccc1N)C2,"inconclusive: 35.5 µM [inhibitor, single point]"
15,COc1ccc(SCCc2ccncc2)cc1,"inconclusive: 25.1 µM [inhibitor, single point]"
16,CC/C=C\C/C=C\C/C=C\C/C=C\C/C=C\C/C=C\CCC(=O)O,inactive
17,CCCCN(C)Cc1c(O)ccc2c(-c3ccccc3)cc(=O)oc12,"inconclusive: 39.8 µM [inhibitor, single point]"
18,CCOC(=O)C1=C(N)OC2=C(C(=O)CC(C)(C)C2)C1c1ccccc1OC (centres undefined),inactive
19,CC(C)c1nnc(NC(=O)CCS(=O)(=O)c2nc(-c3cccs3)cc(C(F)(F)F)n2)s1,"inconclusive: 35.5 µM [inhibitor, single point]"
20,CC1=C(C(=O)N2CCOCC2)C(c2ccsc2)C2=C(CCCC2=O)N1 (centres undefined),"inconclusive: 28.2 µM [inhibitor, partial curve]"
21,COc1ccccc1NC(=O)Cc1nn(C)c(=O)c2ccccc12,inactive
22,Cn1c2ccccc2c2c(C(=O)N3CCN(c4ccc(F)cc4)CC3)cn(C3CCCC3)c(=O)c21,"inconclusive: 35.5 µM [inhibitor, partial curve]"
